Whole data set: some 4,100 sequences, median “arbitrary fluorescence units” near 780, cut for the highest 2% near 22,000. This is one part of the list.
target: T1, ETS1 (UniProt P14921); test: ETS1 binding intensity (PBM fluorescence), ETS1 alone (arbitrary fluorescence units); higher = stronger binding; conditions: ETS1 concentration 1 nM; RUNX1 concentration 0 nM
T1 sequence: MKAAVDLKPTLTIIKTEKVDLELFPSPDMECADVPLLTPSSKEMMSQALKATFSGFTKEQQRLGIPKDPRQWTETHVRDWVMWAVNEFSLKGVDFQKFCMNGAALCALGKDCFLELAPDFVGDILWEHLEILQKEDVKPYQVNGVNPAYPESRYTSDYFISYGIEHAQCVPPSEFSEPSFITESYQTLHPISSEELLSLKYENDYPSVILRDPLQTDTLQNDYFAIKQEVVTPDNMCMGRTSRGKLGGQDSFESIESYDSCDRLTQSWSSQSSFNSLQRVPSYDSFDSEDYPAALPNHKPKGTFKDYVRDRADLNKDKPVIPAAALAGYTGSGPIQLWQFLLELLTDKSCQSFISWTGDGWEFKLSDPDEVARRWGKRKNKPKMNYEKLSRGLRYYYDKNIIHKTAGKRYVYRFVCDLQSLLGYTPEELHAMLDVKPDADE
Summary of the method: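 Double-stranded Agilent 4 × 180k arrays held 36-bp genomic probes whose RUNX1 partner site was mutated, and these were incubated with 1 nM full-length recombinant human ETS1 in the absence of RUNX1 under standard PBM protocols. Bound protein was labelled with anti-ETS1 antibody (Cell Signaling Technology 14069) plus an Alexa488-conjugated secondary and read on a GenePix 4400A, with four spots printed per sequence. Binding level is reported as raw spot fluorescence intensity summarised over replicate spots.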

| Sequence | ETS1 binding intensity |
| --- | --- |
| GCTTTTGGCGGCTGCGCGGGCTTCCTGGAGTCCTGC | 684 |
| CTGCTTTGCCTGCAGCGCTCCGGAACACCCGGCTAC | 333 |
| AGACCCGGACCGGAACCTTGGCGCGGCGACGCTAGT | 1170 |
| TTCTTAGCAGAGGAAGCTGTTTGGGGGGAAAAAGGG | 673 |
| GATTTCATGTTTGGGGTTTAACTTCCGTAGCTTGGG | 889 |
| CTAGCAGCTTCCGAGGGGGCGGCGGCCGGAGCGAGT | 784 |
| AGCCAGGAAATCCGCACCTACACAGCCCAACCCCAG | 1760 |
| CTGGTGCTCACAGGACAAATGTCATCCTGTATGTAT | 589 |
| CCCACCCGGAAATGAGCCAACAGTGCTTTCGCCCCG | 5510 |
| CGGGCAGACTACGGCCCTGGACGGGAAGCGGCGGCC | 377 |
| CACTTCCTGCCCTCTTCCACTTTCAAAATCACATCA | 31900 |
| ATGGCAACCCCAGTCTGTAACCGACACCGGAAGCGA | 2390 |
| GTATTTATTTCCTCTTCGAAGAAATTCGGGGGTGCC | 3780 |
| CTGGGCTTCCTCTTCAGGCATGCGCCGTGGACCTGC | 1680 |
| TCCCCCTTCCCTCAGCTCCTCTTCCGCGTCCTCCCC | 511 |
| TGGGGGACGGGACCTCGGGAACCCGGAAACGCCTGG | 1220 |
| TGGAACAGCGACAGGAGACTCGCGTGTTCCGGGGAG | 327 |
| TTGAGCGCAGGAACTCAACCTCCCCCGGAACTCAAC | 379 |

| Sequence | ETS1 binding intensity |
| --- | --- |
| GGGAGGAGGAAGGGGCTGTGTCTGGGAGTTGGGGGC | 788 |
| CTGTTGTAGTTGCTGCGACAATGCTCCAGGAAGGGT | 475 |
| GAAGGGAGGAAGCCTGAGAACTGTTGTCTCCTGAAG | 424 |
| TTCGCTCCCTGAATCGCGTCGCTTCCTGAGCCGCGC | 454 |
| ACAGGAAGTGTCTCTATAGAAACCAAATCACAGAAA | 1770 |
| GGGGAAGAGGAAGCTGTGTCCACGGTGCAAGGGGTT | 844 |
| CCTTGCTTTCCGGGGACTGCCTGGGACAACCTCGCA | 1540 |
| GGGCTTCAGCGGATGAACAAGGTTATCACGGGGAGT | 485 |
| AGCCAGGAAATCCGCGCCTACACAGCCCAACCCCAG | 913 |
| TTCTCTGATTTTCCTTCCGCTCCCACGGCCTCTCCC | 1360 |
| CGGCGCTCCCACCGTGAGCCGACGGGAAATGGAGTC | 460 |
| GTGTCCACTGCCTAGTTACTGCCAGCGGAAGGAAGG | 407 |
| CTGTCAGCCCCTCAGCCCCTGCTTCCTGGCTGGCTG | 629 |
| GCGAGACGCGGAAGAGGCTTGGGGTTGACCAAAGAA | 424 |
| TGCTGCACCCCAGCCCCTTTCTCTTCCGGTTCTAGG | 1850 |
| CTCCCCCAGCACATCCTCTGCCACTGCTGCCTTTCC | 1720 |
| AGGGAACAGGAAATGCAAAAAACTACAAGGGACAAG | 13000 |

Reference: the supplement of paper PMC10681739
